{"source": "a collection of fitness landscapes (doi:10.1126/science.1257360)", "parents": {"B1": {"name": "PhoQ; a variant is named by its letters at X, in order, P23837 (parent)", "chain": "MKKLLRLFFPLSLRVRFLLATAAVVLVLSLAYGMVALIGYSVSFDKTTFRLLRGESNLFYTLAKWENNKLHVELPENIDKQSPTMTLIYDENGQLLWAQRDVPWLMKMIQPDWLKSNGFHEIEADVNDTSLLLSGDHSIQQQLQEVREDDDDAEMTHSVAVNVYPATSRMPKLTIVVVDTIPVELKSSYMVWSWFIYVLSANLLLVIPLLWVAAWWSLRPIEALAKEVRELEEHNRELLNPATTRELTSLVRNLNRLLKSERERYDKYRTTLTDLTHSLKTPLXXLQXXLRSLRSEKMSVSDAEPVMLEQISRISQQIGYYLHRASMRGGTLLSRELHPVAPLLDNLTSALNKVYQRKGVNISLDISPEISFVGEQNDFVEVMGNVLDNACKYCLEFVEISARQTDEHLYIVVEDDGPGIPLSKREVIFDRGQRVDTLRPGQGVGLAVAREITEQYEGKIVAGESMLGGARMEVIFGRQHSAPKDE"}}, "note": "Some of the results follow.", "data": [{"variants_of": "B1", "assay": "enrichment ratio after two sorts for PhoP signalling (ratio (wild type AVST 3.29)); higher = more functional", "conditions": "with PhoP (E. coli)", "values": [{"variant": "RADV", "enrichment ratio": "≤ 0.25"}, {"variant": "FEAY", "enrichment ratio": "≤ 0.25"}, {"variant": "KHMD", "enrichment ratio": "≤ 0.25"}, {"variant": "DSSY", "enrichment ratio": "≤ 0.25"}, {"variant": "PGCF", "enrichment ratio": "≤ 0.25"}, {"variant": "MQAE", "enrichment ratio": "≤ 0.25"}, {"variant": "PKDM", "enrichment ratio": "≤ 0.25"}, {"variant": "GWKA", "enrichment ratio": "≤ 0.25"}, {"variant": "DNVL", "enrichment ratio": "≤ 0.25"}, {"variant": "QAGH", "enrichment ratio": 1.79}, {"variant": "LVGF", "enrichment ratio": "≤ 0.25"}, {"variant": "MFDI", "enrichment ratio": "≤ 0.25"}, {"variant": "RSLA", "enrichment ratio": "≤ 0.25"}, {"variant": "HMEF", "enrichment ratio": "≤ 0.25"}, {"variant": "SRWG", "enrichment ratio": "≤ 0.25"}, {"variant": "RWPE", "enrichment ratio": "≤ 0.25"}, {"variant": "LGQE", "enrichment ratio": "≤ 0.25"}, {"variant": "YEDA", "enrichment ratio": "≤ 0.25"}, {"variant": "TQCV", "enrichment ratio": 10.8}, {"variant": "WQED", "enrichment ratio": "≤ 0.25"}, {"variant": "IGYD", "enrichment ratio": "≤ 0.25"}, {"variant": "QINL", "enrichment ratio": "≤ 0.25"}, {"variant": "VMQM", "enrichment ratio": "≤ 0.25"}, {"variant": "ARYR", "enrichment ratio": "≤ 0.25"}, {"variant": "DLLF", "enrichment ratio": "≤ 0.25"}, {"variant": "TMND", "enrichment ratio": 21.9}, {"variant": "TMKC", "enrichment ratio": "≤ 0.25"}, {"variant": "KDNC", "enrichment ratio": "≤ 0.25"}, {"variant": "SESL", "enrichment ratio": 10.8}, {"variant": "IKHC", "enrichment ratio": "≤ 0.25"}, {"variant": "YQLP", "enrichment ratio": "≤ 0.25"}, {"variant": "KEFV", "enrichment ratio": "≤ 0.25"}, {"variant": "AKLY", "enrichment ratio": 19.7}, {"variant": "CWCM", "enrichment ratio": "≤ 0.25"}, {"variant": "AQQY", "enrichment ratio": "≤ 0.25"}, {"variant": "YQWS", "enrichment ratio": "≤ 0.25"}, {"variant": "WDAD", "enrichment ratio": "≤ 0.25"}, {"variant": "HGEI", "enrichment ratio": "≤ 0.25"}, {"variant": "PYEV", "enrichment ratio": "≤ 0.25"}, {"variant": "YGPY", "enrichment ratio": "≤ 0.25"}, {"variant": "ISSM", "enrichment ratio": 0.778}, {"variant": "FTVL", "enrichment ratio": 5.17}, {"variant": "GLIV", "enrichment ratio": "≤ 0.25"}, {"variant": "IGEF", "enrichment ratio": "≤ 0.25"}, {"variant": "CFVS", "enrichment ratio": "≤ 0.25"}, {"variant": "ELFS", "enrichment ratio": "≤ 0.25"}, {"variant": "RAVS", "enrichment ratio": "≤ 0.25"}, {"variant": "IMVH", "enrichment ratio": "≤ 0.25"}, {"variant": "RVFE", "enrichment ratio": "≤ 0.25"}, {"variant": "HFQG", "enrichment ratio": "≤ 0.25"}, {"variant": "MPWE", "enrichment ratio": "≤ 0.25"}, {"variant": "SYWV", "enrichment ratio": "≤ 0.25"}, {"variant": "RKED", "enrichment ratio": "≤ 0.25"}, {"variant": "PWSG", "enrichment ratio": "≤ 0.25"}, {"variant": "VDKT", "enrichment ratio": "≤ 0.25"}, {"variant": "DAEL", "enrichment ratio": "≤ 0.25"}, {"variant": "LDCE", "enrichment ratio": "≤ 0.25"}, {"variant": "KSQC", "enrichment ratio": "≤ 0.25"}, {"variant": "NYYA", "enrichment ratio": "≤ 0.25"}, {"variant": "SEDV", "enrichment ratio": "≤ 0.25"}, {"variant": "LSSD", "enrichment ratio": "≤ 0.25"}, {"variant": "QQRL", "enrichment ratio": "≤ 0.25"}, {"variant": "NLRE", "enrichment ratio": "≤ 0.25"}, {"variant": "SWGY", "enrichment ratio": "≤ 0.25"}, {"variant": "ESVK", "enrichment ratio": "≤ 0.25"}, {"variant": "IFSS", "enrichment ratio": "≤ 0.25"}, {"variant": "HMFD", "enrichment ratio": "≤ 0.25"}, {"variant": "HQRS", "enrichment ratio": "≤ 0.25"}, {"variant": "CVAH", "enrichment ratio": "≤ 0.25"}, {"variant": "YHHN", "enrichment ratio": "≤ 0.25"}, {"variant": "FEVT", "enrichment ratio": 8.94}, {"variant": "MEIG", "enrichment ratio": 8.35}, {"variant": "DDKI", "enrichment ratio": "≤ 0.25"}, {"variant": "ITWC", "enrichment ratio": "≤ 0.25"}, {"variant": "YTEH", "enrichment ratio": "≤ 0.25"}, {"variant": "ACGA", "enrichment ratio": "≤ 0.25"}, {"variant": "SKQY", "enrichment ratio": "≤ 0.25"}, {"variant": "SKCN", "enrichment ratio": 3.51}, {"variant": "LDYC", "enrichment ratio": "≤ 0.25"}, {"variant": "FIGN", "enrichment ratio": "≤ 0.25"}, {"variant": "QNTY", "enrichment ratio": "≤ 0.25"}, {"variant": "GNHQ", "enrichment ratio": "≤ 0.25"}, {"variant": "QDPP", "enrichment ratio": "≤ 0.25"}, {"variant": "DMQG", "enrichment ratio": "≤ 0.25"}, {"variant": "DENY", "enrichment ratio": "≤ 0.25"}, {"variant": "IYLV", "enrichment ratio": "≤ 0.25"}, {"variant": "SGDC", "enrichment ratio": "≤ 0.25"}, {"variant": "QYRW", "enrichment ratio": "≤ 0.25"}, {"variant": "MPNA", "enrichment ratio": "≤ 0.25"}, {"variant": "WNSN", "enrichment ratio": "≤ 0.25"}, {"variant": "YEFR", "enrichment ratio": "≤ 0.25"}, {"variant": "TSIW", "enrichment ratio": "≤ 0.25"}, {"variant": "IHPH", "enrichment ratio": "≤ 0.25"}, {"variant": "VSHM", "enrichment ratio": "≤ 0.25"}, {"variant": "VWTK", "enrichment ratio": "≤ 0.25"}, {"variant": "RVDA", "enrichment ratio": "≤ 0.25"}, {"variant": "TFTD", "enrichment ratio": "≤ 0.25"}, {"variant": "KNHV", "enrichment ratio": "≤ 0.25"}, {"variant": "EEVR", "enrichment ratio": "≤ 0.25"}, {"variant": "NYWQ", "enrichment ratio": "≤ 0.25"}, {"variant": "RIQR", "enrichment ratio": "≤ 0.25"}, {"variant": "NNPI", "enrichment ratio": "≤ 0.25"}, {"variant": "YKIH", "enrichment ratio": "≤ 0.25"}, {"variant": "LSNI", "enrichment ratio": "≤ 0.25"}, {"variant": "NFWC", "enrichment ratio": "≤ 0.25"}, {"variant": "KFRT", "enrichment ratio": "≤ 0.25"}, {"variant": "QLNC", "enrichment ratio": "≤ 0.25"}, {"variant": "PYAA", "enrichment ratio": "≤ 0.25"}, {"variant": "DVSK", "enrichment ratio": "≤ 0.25"}, {"variant": "MDFI", "enrichment ratio": "≤ 0.25"}, {"variant": "HMDE", "enrichment ratio": "≤ 0.25"}, {"variant": "NNMV", "enrichment ratio": 6.27}, {"variant": "TAMR", "enrichment ratio": 2.69}, {"variant": "NSFL", "enrichment ratio": "≤ 0.25"}, {"variant": "TSHA", "enrichment ratio": 3}, {"variant": "YNNN", "enrichment ratio": "≤ 0.25"}, {"variant": "YCHH", "enrichment ratio": "≤ 0.25"}, {"variant": "QTAV", "enrichment ratio": "≤ 0.25"}, {"variant": "GRSK", "enrichment ratio": "≤ 0.25"}, {"variant": "TMWV", "enrichment ratio": "≤ 0.25"}, {"variant": "KNAP", "enrichment ratio": "≤ 0.25"}, {"variant": "WGLK", "enrichment ratio": "≤ 0.25"}, {"variant": "ASML", "enrichment ratio": 10.2}, {"variant": "EQFA", "enrichment ratio": "≤ 0.25"}, {"variant": "SKWM", "enrichment ratio": "≤ 0.25"}, {"variant": "YHKL", "enrichment ratio": "≤ 0.25"}, {"variant": "KYTG", "enrichment ratio": "≤ 0.25"}, {"variant": "VQPS", "enrichment ratio": "≤ 0.25"}, {"variant": "EDCT", "enrichment ratio": "≤ 0.25"}, {"variant": "RTKG", "enrichment ratio": "≤ 0.25"}, {"variant": "PPMY", "enrichment ratio": "≤ 0.25"}, {"variant": "QFYN", "enrichment ratio": "≤ 0.25"}, {"variant": "AYDF", "enrichment ratio": "≤ 0.25"}, {"variant": "DEVR", "enrichment ratio": "≤ 0.25"}, {"variant": "VLMC", "enrichment ratio": "≤ 0.25"}, {"variant": "ITRE", "enrichment ratio": "≤ 0.25"}, {"variant": "SIVT", "enrichment ratio": 4.11}, {"variant": "LTEV", "enrichment ratio": "≤ 0.25"}, {"variant": "LSLD", "enrichment ratio": "≤ 0.25"}, {"variant": "PYIQ", "enrichment ratio": "≤ 0.25"}, {"variant": "LNGF", "enrichment ratio": "≤ 0.25"}, {"variant": "NIPH", "enrichment ratio": "≤ 0.25"}, {"variant": "QVLN", "enrichment ratio": "≤ 0.25"}, {"variant": "TECR", "enrichment ratio": 16.3}, {"variant": "EAGL", "enrichment ratio": "≤ 0.25"}, {"variant": "HYYT", "enrichment ratio": "≤ 0.25"}, {"variant": "LENW", "enrichment ratio": "≤ 0.25"}, {"variant": "RWYR", "enrichment ratio": "≤ 0.25"}, {"variant": "QASV", "enrichment ratio": 2.44}, {"variant": "RAEQ", "enrichment ratio": "≤ 0.25"}, {"variant": "VITG", "enrichment ratio": "≤ 0.25"}, {"variant": "NQEY", "enrichment ratio": "≤ 0.25"}, {"variant": "HKMI", "enrichment ratio": "≤ 0.25"}]}]}
